Measured values as given in the supplement of paper PMC3334620.
In all, about 33,000 sequences were measured (“E-score (-0.5 to 0.5)”: median about -0.021, highest 2% from about 0.32 on). This is one part of the list.

target: T1, Zap1 (UniProt P47043); experiment: PBM E-score (8-mer binding enrichment) (E-score (-0.5 to 0.5)); higher = stronger / more preferred TF binding; most listed sequences are background and not binding sites; conditions: protein concentration: 200 nM; construct: GST-full length
T1 sequence: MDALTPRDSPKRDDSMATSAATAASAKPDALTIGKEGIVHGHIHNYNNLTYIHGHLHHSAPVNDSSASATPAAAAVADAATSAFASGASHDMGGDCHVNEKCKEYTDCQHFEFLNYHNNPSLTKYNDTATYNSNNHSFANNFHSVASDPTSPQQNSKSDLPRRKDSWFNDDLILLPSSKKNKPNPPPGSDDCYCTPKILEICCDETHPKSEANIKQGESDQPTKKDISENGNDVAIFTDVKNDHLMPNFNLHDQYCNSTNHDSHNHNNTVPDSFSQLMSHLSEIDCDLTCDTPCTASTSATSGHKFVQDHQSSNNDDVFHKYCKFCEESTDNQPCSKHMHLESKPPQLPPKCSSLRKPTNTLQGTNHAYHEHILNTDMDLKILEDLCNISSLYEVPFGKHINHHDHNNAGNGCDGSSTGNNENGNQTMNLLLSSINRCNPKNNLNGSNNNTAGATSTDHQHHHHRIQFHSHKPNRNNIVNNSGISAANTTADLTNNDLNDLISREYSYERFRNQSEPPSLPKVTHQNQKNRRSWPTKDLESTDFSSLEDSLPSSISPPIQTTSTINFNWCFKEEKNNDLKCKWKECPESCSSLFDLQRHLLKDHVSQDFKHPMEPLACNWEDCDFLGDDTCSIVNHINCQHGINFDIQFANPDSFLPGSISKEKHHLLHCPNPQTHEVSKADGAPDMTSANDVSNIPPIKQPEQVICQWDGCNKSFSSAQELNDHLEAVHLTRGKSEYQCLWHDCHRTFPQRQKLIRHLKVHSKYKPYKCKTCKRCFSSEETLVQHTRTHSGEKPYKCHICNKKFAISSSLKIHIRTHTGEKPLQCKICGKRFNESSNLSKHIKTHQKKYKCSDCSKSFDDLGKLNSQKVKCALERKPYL
Method in brief: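 The E-score, a modified Wilcoxon-Mann-Whitney statistic, was computed by the Universal PBM Analysis Suite for every ungapped eight-base word pooled with its reverse complement. Scans behind it were normalised with masliner after bound GST-tagged yeast transcription factors were detected with fluorescent anti-GST. The proteins, at about 100-200 nM, had been applied to universal all-10-mer Agilent arrays made double-stranded by primer extension.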

| Sequence | PBM E-score |
| --- | --- |
| AATTTGGA | 0.0369 |
| CAAAGTAA | -0.00107 |
| ACTTCAAA | -0.13 |
| ACCCTTCG | 0.373 |
| ACCAATGC | 0.0242 |
| CCATCCGG | -0.0653 |
| CGATATAA | 0.0368 |
| CCGGAAAA | 0.214 |
| AGAATTGG | -0.137 |
| GTAGGCAC | -0.108 |
| CTACACAG | -0.119 |
| CAAGTCGG | -0.11 |
| AACGATTC | -0.191 |
| ACTTTCGG | -0.0108 |
| ACGAACTA | 0.099 |
| CTCTTCAA | -0.24 |
| GATTTTCC | 0.00079 |
| AAACTGAC | 0.0458 |
| TCGGTCCA | 0.0624 |
| ATGGCGAC | -0.107 |
| GTACTGTA | 0.0704 |
| ACTAATAG | 0.117 |

| Sequence | PBM E-score |
| --- | --- |
| AAGCTCCG | -0.0961 |
| AGCGAAGA | -0.0845 |
| AAACACAG | 0.0983 |
| TCGTCAAA | 0.0196 |
| CCCGTTAC | 0.141 |
| CTACGGTA | 0.0997 |
| CGGGGTGC | -0.0417 |
| CCTGCTTA | 0.0283 |
| GAGATGTA | -0.00504 |
| CTGCTGTA | -0.0799 |
| GAAGAAGA | -0.0985 |
| AAACTGCT | -0.173 |
| ATCCCCTC | -0.167 |
| CGTACGAA | 0.0481 |
| AACTGCCT | -0.187 |
| CTTGTTAA | 0.102 |
| AAACTGTC | -0.156 |
| ACTAGTCA | -0.235 |
| CTCGCATA | -0.0255 |
| AAGGGTTG | 0.441 |
| AAATATCA | 0.0502 |
| GTGCCAAA | -0.173 |

| Sequence | PBM E-score |
| --- | --- |
| CCCGATAC | 0.209 |
| CTACGAAC | 0.0136 |
| CCGGCCCA | -0.106 |
| AAGTTACC | 0.265 |
| ATACAGAT | 0.102 |
| TCTGAACA | 0.0463 |
| ATGGTCTA | -0.0631 |
| CCAATAGG | 0.166 |
| CTATTAGA | -0.0606 |
| GAAACGTC | -0.299 |
| AGAGTGAT | -0.0301 |
| CTTTAACA | 0.123 |
| GTTAATTA | 0.212 |
| CTACTTTC | 0.043 |
| ATGTTCTC | -0.0467 |
| ACGGTTCT | 0.0709 |
| ATGTCAGC | -0.201 |
| AGCCGGGA | -0.0342 |
| CGCGGCGA | 0.0759 |
| AACGGACG | -0.214 |
| ATACCCTC | 0.323 |
| CCGCATTA | -0.0192 |

| Sequence | PBM E-score |
| --- | --- |
| TCCACTCA | 0.0775 |
| CTTTGTGC | -0.0318 |
| ATCGAGTA | -0.0105 |
| AGTTATGA | 0.169 |
| GTTGAGGA | 0.042 |
| CGGTCGAC | -0.00696 |
| GTGTGCGA | -0.192 |
| AAAATAAA | 0.239 |
| ATTCAAAA | 0.173 |
| CGGTTGTA | 0.153 |
| TGATGCCA | -0.288 |
| CGGCGAAC | -0.274 |
| GCCCTGAA | 0.0835 |
| TGAACTCA | -0.0396 |
| CCTAAAGC | -0.135 |
| AATCGCTA | -0.00711 |
| ACCCAACG | 0.182 |
| ATCCATAC | -0.0583 |
| GGGAGTAC | -0.159 |
| GGGTAGAA | 0.163 |
